PubChem BioAssay AID488969 (Vanderbilt High Throughput Screening Facility, 2010)
In all, about 110,000 compounds were measured (“z-score”: median about -0.1, highest 2% from about 2 on). Some of the results follow. Calls of active or inactive are those of the source.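 The calls were made as follows: active = z-score in the third read window above 3 or below -3; inactive = the rest.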

Molecular target: Metabotropic glutamate receptor 8 (Rattus norvegicus) (UniProt P70579)
Experiment: rat mGluR8 modulators via GIRK flux, primary screen, cell-based, thallium flux, HTS (AID 488969)
Details: HEK293 rat mGluR8, GIRK (G protein-gated inwardly rectifying potassium channel) thallium flux, FluoZin2; at 10 µM; stronger effect = higher value; submaximal glutamate (EC20) added with thallium

Sequence of UniProt P70579 (P70579 whole entry, looked up): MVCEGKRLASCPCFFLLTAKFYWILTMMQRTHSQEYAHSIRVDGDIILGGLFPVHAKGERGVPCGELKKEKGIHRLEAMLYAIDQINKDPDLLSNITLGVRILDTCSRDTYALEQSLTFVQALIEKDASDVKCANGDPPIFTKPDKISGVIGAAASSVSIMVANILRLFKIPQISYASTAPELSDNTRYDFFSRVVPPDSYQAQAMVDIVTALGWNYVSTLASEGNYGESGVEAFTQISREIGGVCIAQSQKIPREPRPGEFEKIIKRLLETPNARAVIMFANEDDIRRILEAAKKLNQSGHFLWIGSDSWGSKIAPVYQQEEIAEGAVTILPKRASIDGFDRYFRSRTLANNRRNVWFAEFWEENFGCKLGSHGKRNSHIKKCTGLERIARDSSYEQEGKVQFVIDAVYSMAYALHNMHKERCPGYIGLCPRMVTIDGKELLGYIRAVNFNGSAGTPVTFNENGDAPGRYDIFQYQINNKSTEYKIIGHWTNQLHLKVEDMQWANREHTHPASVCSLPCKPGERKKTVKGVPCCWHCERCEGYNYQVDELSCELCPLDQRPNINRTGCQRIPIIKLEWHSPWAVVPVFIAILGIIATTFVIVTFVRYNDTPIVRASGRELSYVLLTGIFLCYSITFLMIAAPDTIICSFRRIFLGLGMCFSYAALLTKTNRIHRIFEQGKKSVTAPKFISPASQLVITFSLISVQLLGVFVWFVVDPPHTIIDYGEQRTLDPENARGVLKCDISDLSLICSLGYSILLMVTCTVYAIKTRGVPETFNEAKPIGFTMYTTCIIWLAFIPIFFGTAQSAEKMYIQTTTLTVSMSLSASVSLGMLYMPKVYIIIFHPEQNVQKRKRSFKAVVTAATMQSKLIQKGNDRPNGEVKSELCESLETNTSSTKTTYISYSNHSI

SMILES | z-score
Cc1cc(=O)n2[nH]c(N)c(N=Nc3ccccc3)c2n1 | -0.244
Cc1ccc(NC(=O)Cn2c(=O)n(CCCC(=O)NCc3ccco3)c(=O)c3ccccc32)cc1 | 1.11
COc1cccc(CNCCSc2nnnn2C)c1 | -0.331
COc1ccc(-c2nn(C)c(=O)c3ccccc23)cc1NC(=O)Cn1nc(-c2ccccc2)c2ccccc2c1=O | -0.728
O=C(Nc1nnc(C2CC2)s1)c1ccncc1 | 0.0327
O=c1c2cnn(-c3ccccc3)c2ncn1/N=C/c1ccncc1 | -0.283
O=C(CSc1nnc(Cc2cccs2)n1-c1ccc(Cl)cc1)NCc1ccc2c(c1)OCO2 | -0.113
CCn1c(SCC(=O)NCc2ccco2)nnc1-c1cccs1 | -0.0195
N#CCCCSc1nnnn1-c1cccc(Cl)c1 | -0.399
Cc1nc(-c2cccnc2)sc1C(=O)Nc1ccc(Cl)cc1 | -0.679
Cc1nn(C(=O)c2cc3sccc3[nH]2)c(C)c1C | -0.18
CCOC(=O)c1noc(C)c1C(=O)Nc1cccc(F)c1 | -0.0079
COc1ccc(C)cc1Cn1c(S(C)(=O)=O)nc2ccccc21 | -2.09
CCOC(=O)/C(=C/c1ccccc1)NC(=O)c1ccco1 | -0.14
COc1ccccc1NC(=O)c1ccc(-n2cccn2)nc1 | -0.237
CC1=C(C#N)C(Nc2ccc(Cl)cn2)(C(F)(F)F)C(=O)N1 (configuration not stated) | 0.0919
Cc1nc(NC(=O)c2ccc(Br)o2)sc1C | -0.141
Cc1nn(-c2nc3ccccc3n2Cc2ccccc2)c2c1C(=O)CC(C)(C)C2 | -1.13
CSc1nsc(NC(=O)Cc2ccccc2)n1 | -0.175
CCCc1nnc(N2C(=O)c3cccc4cccc(c34)C2=O)s1 | 0.128
CC(C)N1C/C(=C/c2ccsc2)C(=O)/C(=C/c2ccsc2)C1 | -0.21
CCNc1nc(SCCOc2ccccc2)nc(N(C)C)n1 | 0.0574
Cc1cccnc1NC(=O)/C=C/c1ccc2c(c1)OCO2 | 0.00142
Cc1ccc(Cl)cc1N1CCN(C(=O)CSc2nnc3n2C(C)(C)Cc2ccccc2-3)CC1 | 1.18

SMILES | z-score
CCOC(=O)c1cnc2sc3c(n2c1=O)CCCC3 | -0.748
Cc1ccc(S(=O)(=O)C2C(=O)N(C)C3(C)CC2c2ccccc2O3)cc1 (configuration not stated) | -0.0246
Cc1cc(Cl)c(S(=O)(=O)NC(C(=O)O)C(C)C)cc1OCC(=O)NC1CCCCC1 (configuration not stated) | -0.47
Cc1cccc(-n2c(C)nc3cc(C(=O)NCc4ccc5c(c4)OCO5)ccc32)c1 | 0.471
Cn1c(=O)n(CC(=O)O)c(=O)c2c1nc1n2CCS1 | 0.0884
COc1ccc(C2c3c(oc4ccccc4c3=O)C(=O)N2CCCN2CCOCC2)cc1 (configuration not stated) | 0.392
CC(=O)Nc1ccc(C(=O)CSc2nc3ccc(C)cc3[nH]2)cc1 | active: -3.05
CC(=O)Nc1cccc2c1C(=O)N(c1cccc(C)c1)C2=O | active: 3.13
O=C(CSC1=Nc2ccccc2C2=NC(CC(=O)NCc3ccco3)C(=O)N12)NCc1ccco1 (configuration not stated) | 0.141
COc1cc(NC(=O)CN(C)Cc2ccc(OC(F)F)cc2)c(C)cc1[N+](=O)[O-] | -0.0913
Cc1ccc(N=Cc2c(O)n(-c3nccs3)c(=O)c3ccccc23)cc1 | -0.21
COc1cc(C)c(Cl)cc1S(=O)(=O)NCC1CCCO1 (configuration not stated) | 0.287
CC(=O)C1=C(C)OC(N)=C(C#N)C1c1ccco1 (configuration not stated) | 1.13
Nc1nonc1C(=O)NCCc1ccccc1 | -0.0967
CCn1c(=O)c(C(=O)CN2CCc3ccccc32)c(N)n(Cc2ccccc2)c1=O | -0.27
Cn1c(=O)c2c(nc(SCC(=O)NCc3ccc4c(c3)OCO4)n2Cc2ccc(Cl)cc2)n(C)c1=O | 1.03
Cc1ccc(C2C=C(c3ccc4c(c3)OCO4)Nc3ncnn32)cc1 (configuration not stated) | -0.377
CCc1nc2cc(CC(=O)O)ccc2o1 | -0.775
CCCCn1c(/C=N/Nc2nc3ccccc3[nH]2)nc2ccccc21 | -0.339
O=C(NCc1ccc2c(c1)OCO2)c1ccc(CN2CCOCC2)cc1 | 0.16
CC1CC(C)CN(CCCSc2ccccc2)C1 (configuration not stated) | 0.321
COCCCNC(=O)c1ccc(N(C)S(=O)(=O)c2ccc(OC)cc2)cc1 | 0.906
COC(=O)c1ccc(NC(=O)COc2ccc(S(=O)(=O)N3CCCCC3)cc2)cc1 | 0.21
Cc1nc2c(C#N)c[nH]n2c(=O)c1Cc1ccccc1 | -0.371

SMILES | z-score
CCC(C)NC(=O)C1c2ccccc2C(=O)N1Cc1ccc(OC)cc1OC (configuration not stated) | -0.296
COc1ccc(/C=C2\N=C(SC)NC2=O)cc1 | 1.23
CCCCCCNC(=O)C(C#N)c1nc2ccccc2nc1N1CCOCC1 (configuration not stated) | 0.653
O=C(NCCN1CCN(c2ccccc2)CC1)c1ccc(NC(=O)C2CCCO2)cc1 (configuration not stated) | 0.24
CN1/C(=C\C=Nc2cc(S(=O)(=O)N3CCOCC3)ccc2N2CCOCC2)C(C)(C)c2ccccc21 | 0.15
O=C(NCC1CCCO1)c1onc(CSc2ccc(Cl)cc2)c1C(=O)O (configuration not stated) | -0.0082
CNS(=O)(=O)c1ccc(OC)c(-c2nnc3c4ccccc4c(C)nn23)c1 | -0.304
COc1ccc(OCCNC(=S)Nc2cccc3ccccc23)cc1 | 0.367
CCOC(=O)C1=C(CC)NC2=C(C(=O)CCC2)C1c1ccc(OC)c(OC)c1 (configuration not stated) | -0.157
O=C(Nc1cc(Cl)ccn1)C1CCN(S(=O)(=O)c2cccs2)CC1 | 0.347
COc1ccc(-n2ccc(=O)c3c2CCCC3=O)cc1 | -0.208
O=C(Nc1ccccn1)c1ccc2ccccc2n1 | -0.139
COC(=O)C(C)Sc1ncnc2c1nnn2-c1ccc(F)cc1 (configuration not stated) | 0.394
Cc1cc(C)cc(NC(=O)c2nnn(Cc3cc(C)ccc3C)c2N)c1 | -0.0673
COC(=O)c1c(C)nc2ccccc2c1C(=O)O | 0.148
CC(=O)Nc1cccc(NC(=O)c2cc(-c3cccnc3)nc3ccc(Br)cc23)c1 | 0.255
COc1ccc(Cn2c(CCCO)nc3ccccc32)cc1OC | 0.229
O=C(Cn1nnc(-c2ccccc2)n1)NCc1ccco1 | 0.185
c1ccc(-n2nnnc2Oc2cccc3cccnc23)cc1 | 0.00666
CCN(CC)c1c([N+](=O)[O-])ncn1C | 0.53
Cc1ccc(-c2c(C)sc(=NC(=O)c3ccco3)n2C)cc1 | -0.33
N#Cc1c(-c2ccccc2)cc(-c2ccccc2)nc1SCc1nnc(-c2ccccc2)o1 | -0.0499
CCOC(=O)N1CCC(N2CCN(S(=O)(=O)c3ccc(C)cc3)CC2)CC1 | 0.477
O=C(NCc1cccs1)C1CCN(S(=O)(=O)c2ccc3c(c2)OCCO3)CC1 | -0.357
